According to patent US5434133A, “CNP analog peptides and their use” (Suntory Limited, priority 1991, dated 1995):
Not every detail of the peptide structures is certain; ends, links or a residue may be inferred.

Assays:
[1] = tested on: cultured vascular smooth muscle cells (VSMC) derived from the aortas of rats; test: cGMP producing activity in cultured VSMC (cGMP radioimmunoassay); format: cell-based, rat; details: specific activity compared to 1 μm α-hANP (2000 fmol/400000 cells) = 100; peptide at 1 μm
Experimental: 1-1: Measurement of CGMP Producing Activity
The above-mentioned activity of compounds synthesized according to the present invention was measured by the methods of Hirata et al. (Biochem. Biophys. Res. Commun., 128, 538, 1985) and Scarborough et al. (J. Biol. Chem., 261, 12960, 1986). The cells used were cultured vascular smooth muscle cells (hereunder abbreviated as VSMC) derived from the aortas of rats. From 10^-9 to 10^-6 M of α-hANP or a 20 peptide of interest was incubated together with VSMC and the amount cGMP produced was measured by cGMP radioimmunoassay. Percent maximum reactivity for each peptide, with the value of maximum reactivity for α-hANP being taken as 100%, was used as an indicator of activity.

[2] = tested on: cultured vascular smooth muscle cells (VSMC) derived from the aortas of rats; test: Cell growth suppressing activity: [3H] thymidine uptake (DNA synthesis inhibition) in VSMC; format: cell-based, rat; details: for % Inhibition of 3H-thymidine uptake: 0.1 μm of each peptide, BSMC line stimulated with PDGF (20 ng/ml)
Experimental: 1-2: Measurement of Cell Growth Suppressing Activity
Cell growth suppressing activity was evaluated in accordance with the method of Kariya et al. (Atherosclerosis, 80, 143-147, 1990) by measuring the uptake of [^3 H] thymidine into cells as an indicator of percent DNA synthesis inhibition using the above-identified VSMC. Cells tuned to a stationary phase were incubated at 37° C. for 14 h with each sample added in the presence of 1% serum or 20 ng/ml of PDGF (platelet derived growth factor). Then, following the addition of 37 kBq/ml of [^3 H] thymidine, the incubation was continued for another 4 h and the radioactivity of [^3 H] thymidine incorporated into the cells was measured. The values of measurement were such that the uptake of [^3 H] thymidine for the case where only 1% serum or PDGF was added in the absence of peptide was taken as 100%, with the percent suppression due to the peptide addition being accordingly calculated.

[3] = tested on: rat vascular smooth muscle cells stimulated with 1% serum; test: Cell count of VSMC cultured 4 days with 1% serum (hemocytometer); format: cell-based; details: 5 × 10^-7 M; for Cell count: mean ± s.d. (n = 12); for Cell count [% of control]: physiological saline = 100

Structure (SMILES) | cGMP producing activity (% increase for 1 μm) [1] [%] | % Inhibition of 3H-thymidine uptake [2] [%] | Cell count [3] | Cell count [% of control] [3] | suppression of DNA synthesis of rat VSMC (in words) ([2]; FIGS. 2, 3 and 4) | intensity of DNA synthesis / cell growth suppressing action relative to α-hANP ([2]; rat VSMC, compared with α-hANP) [times]
CC[C@H](C)[C@@H]1NC(=O)[C@H](CCCNC(=N)N)NC(=O)[C@H](CC(=O)O)NC(=O)[C@H](CCSC)NC(=O)[C@H](CCCNC(=N)N)NC(=O)CNC(=O)CNC(=O)[C@H](Cc2ccccc2)NC(=O)[C@@H](NC(=O)[C@H](CO)NC(=O)[C@H](CO)NC(=O)[C@H](CCCNC(=N)N)NC(=O)[C@H](CCCNC(=N)N)NC(=O)[C@H](CC(C)C)NC(=O)[C@@H](N)CO)CSSC[C@@H](C(=O)N[C@@H](CC(N)=O)C(=O)N[C@@H](CO)C(=O)N[C@@H](Cc2ccccc2)C(=O)N[C@@H](CCCNC(=N)N)C(=O)N[C@@H](Cc2ccc(O)cc2)C(=O)O)NC(=O)CNC(=O)[C@H](CC(C)C)NC(=O)CNC(=O)[C@H](CO)NC(=O)[C@H](CCC(N)=O)NC(=O)[C@H](C)NC(=O)CNC1=O [α-hANP] | 100 | 58 | 17.1 ± 0.2 × 10^3 cells/well | 83.0 ± 1.3 % of control | – | –
CC[C@H](C)[C@@H]1NC(=O)[C@H](CCCNC(=N)N)NC(=O)[C@H](CC(=O)O)NC(=O)[C@H](CC(C)C)NC(=O)[C@H](CCCCN)NC(=O)[C@H](CC(C)C)NC(=O)CNC(=O)[C@H](Cc2ccccc2)NC(=O)[C@@H](NC(=O)CNC(=O)[C@H](CCCCN)NC(=O)[C@H](CO)NC(=O)[C@H](CC(C)C)NC(=O)CN)CSSC[C@@H](C(=O)O)NC(=O)CNC(=O)[C@H](CC(C)C)NC(=O)CNC(=O)[C@H](CO)NC(=O)[C@H](CCSC)NC(=O)[C@H](CO)NC(=O)CNC1=O [CNP-22] | 621 | 76 | 15.0 ± 0.3 × 10^3 cells/well | 72.8 ± 1.1 % of control | suppress the DNA synthesis of rat VSMC in a dose-dependent manner | 10
